Substitutions are numbered along the chain they refer to. The list shows a part of the results. Binding of human antibodies (heavy:light variable regions, tested as scFv in one mRNA-display pool) to influenza hemagglutinin, with or without the stem antibody CR9114 bound first. Score = (mean enrichment − median) / interquartile range of that screen; higher = more enriched, 0 = typical non-binder. Active = above the paper's cut-off per screen: stems 28; unblocked H1 Solomon Islands 5, H1 Michigan 3, H3 5, H5 19, H7 2.85, both B 5; blocked 9, 7, H5 10, H7 10, B Phuket 10, B Lee 11.5. Scores are scaled within each screen and are no affinities; replicates correlate at about 0.6 to 0.9, and antibodies rare in the pool are noisier.
B1: 014-10-1G06 (protein)
chain 1: QVQLVESGGGVVQPGRSLRLSCAASGFTFNSYAMHWVRQAPGKGLEWVAVISYDETNKHFSDSVKGRFTISRDNSKNTLLLQMDSLRIEDTAVYYCAREASFAFFDIWGQGTMVTVSS
chain 2: EIVMTQSPATLSVSPGERATLSCRASQSLTINLAWYQQRPGQAPRLLIYGASTRATGIPARFSGSGSGTEFTLTISSLQSEDFAVYYCQQYHNWPPLTFGGGTKVEIK
B2: C6-2-2C06 (protein)
chain 1: VQLLESGGGLVQPGGSLRLSCAASGFTFSFSAMSWIRQTPAKGLEWVAAISGNGGATFYTDSVKGRFTISRDNSKSTVHLQMHSLRAEDTAVYYCAKKSPNDYDHYWGQGALVTVSS
chain 2: DIQMTQSPSTLSSSVGDSVTITCRASQSISTYLAWYQQKPGKAPKVLIYQASILESGVPSRFSGSGSGTEFTLTISSLQPDDFATYYCQQYNSYSGTFGQGTKVEIK
B3: K77-1B02 (protein)
chain 1: EVQLVESGGGLERPGGSLRLSCAASGFTFDDHGMSWVRQAPGKGLEWVSGINWNGGSTGYADSVKGRFTISRDNAKSSLFLQMNSLRAEDTALYYCARDSQQGIAAAGIFHYWGQGTLVTVSS
chain 2: DIQMTQSPSTLSASVGDRVTITCRASQSINRWLAWYQQKPGKAPKLLIYRASSLESGVPSRFSGSGSGTEFTLTISSLQPDDFATYFCQHYEGYSWTFGQGTKVDIK
B4: 042-10-2B05 (protein)
chain 1: QVQLVESGGGVVQTGRSLRLSCAASGFTFRNYAMHWVRQAPGKGLEWVAVILYDGNNEYYADFAKGRFTISRDNSKNIVYLQLNSLRPEDSAIYFCAKDGEYSGHESEVHWGQGTLVTVSS
chain 2: B3 chain 2 with I29V, N30F, R31S, L46V, R50K, F87Y, H90Q, E92Q, G93S, D105E
B5: K77-2B03 (protein)
chain 1: EVQLVESGGIVVRPGGSLTLSCTTSGFTFDAHAMHWVRQAPGKGLEWVSLIGWDSAVTFYADSVRGRFNISRDNSKNSLYLQINSLRLEDTALYYCVRDDGSGSYGYHHFDLDVWGRGTMVIVSS
chain 2: DVVMTQSPLSLPVTLGQPASISCRSTQSLVFSDGDTYLNWFQQRPGQSPRRLIYKVSNRDSGVPDRFSGSGSGTDFTLRISRVEADDVGVYYCMQGTHWPLTFGGGTKVEI
B6: K77-2A05 (protein)
chain 1: EVQLVESGGGVVQPGRSLRLSCAASGFTFASYGLHWVRQAPGKGLEWVAHVSSEGSEKYYADSVKGRFTISRDNPKNKLYLQMTSLRAEDTAVYYCARDRSGYFQVDYWGQGTLVTVSS
chain 2: QSALTQPASVSGSPGQSITISCTGATSDVGNYNLVSWYQHHPGKVPKLILYEVTERPSGVSNRFSGSKSGNTASLTISGLQAEDEADYYCCSYATGGIFLFGTGTKVTVL

Tests used:
Assay in all cases: mRNA display binding score; higher = more enriched on the antigen
[1] = target: Influenza A H1N1 A/Michigan/45/2015 hemagglutinin ectodomain
Protocol: (§1)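 A pool of natively paired antibodies, displayed as scFv on mRNA, was selected once on antigen-coated beads and sequenced before and after; two replicates.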

[2] = target: Influenza A H1N1 A/Solomon Islands/3/2006 hemagglutinin ectodomain
Protocol: as §1

[3] = target: Influenza A H3N2 A/Singapore/INFIMH-16-0019/2016 hemagglutinin ectodomain; conditions: antigen blocked with: nothing
Protocol: as §1

[4] = target: Influenza A H5N1 A/Qinghai/1A/2005 hemagglutinin ectodomain
Protocol: as §1

[5] = target: Influenza A H7N9 A/Shanghai/2/2013 hemagglutinin ectodomain
Protocol: as §1

[6] = target: Influenza B/Lee/1940 hemagglutinin ectodomain
Protocol: as §1

[7] = target: Influenza B/Phuket/3073/2013 hemagglutinin ectodomain
Protocol: as §1

[8] = antigen blocked with: 2 µM CR9114 IgG

| Binder | mRNA display binding score [1, 8] | mRNA display binding score ([1]; antigen blocked with: nothing) | mRNA display binding score [2, 8] | mRNA display binding score ([2]; antigen blocked with: nothing) | mRNA display binding score [3] | mRNA display binding score [4, 8] | mRNA display binding score ([4]; antigen blocked with: nothing) | mRNA display binding score [5, 8] | mRNA display binding score ([5]; antigen blocked with: nothing) | mRNA display binding score [6, 8] | mRNA display binding score ([6]; antigen blocked with: nothing) | mRNA display binding score [7, 8] | mRNA display binding score ([7]; antigen blocked with: nothing) |
| --- | --- | --- | --- | --- | --- | --- | --- | --- | --- | --- | --- | --- | --- |
| B1 | inactive: 0.175 | inactive: 2.28 | inactive: 0.737 | inactive: 0.592 | inactive: 1.19 | inactive: 0.75 | inactive: 1.6 | inactive: -0.736 | inactive: 2.27 | inactive: 1.21 | inactive: 0.447 | inactive: 2 | inactive: 0.676 |
| B2 | inactive: 1.12 | inactive: -0.17 | active: 39.6 | active: 26.5 | inactive: -0.504 | inactive: 0.242 | inactive: -0.56 | inactive: 0.407 | inactive: -0.241 | inactive: -1.62 | inactive: -0.051 | inactive: 0.445 | inactive: -0.302 |
| B3 | inactive: -0.254 | inactive: -0.00944 | inactive: -0.197 | inactive: -0.431 | inactive: -0.299 | inactive: -0.498 | inactive: -0.301 | inactive: 0.136 | inactive: -0.1 | inactive: -0.0412 | inactive: -0.265 | inactive: -0.307 | inactive: -0.32 |
| B4 | inactive: 4.12 | inactive: 0.608 | inactive: 1.51 | inactive: 0.4 | inactive: 0.122 | inactive: 0.852 | inactive: 0.267 | inactive: -0.262 | inactive: 0.592 | inactive: -0.75 | inactive: -0.41 | inactive: -0.000462 | inactive: -0.225 |
| B5 | inactive: -0.476 | inactive: 0.607 | inactive: -0.0355 | inactive: -0.292 | inactive: 0.554 | inactive: -0.141 | inactive: -0.328 | inactive: 0.317 | inactive: 0.778 | inactive: -0.0533 | inactive: -0.418 | inactive: 0.112 | inactive: -0.0386 |
| B6 | inactive: -0.417 | inactive: -0.707 | inactive: -0.657 | inactive: -0.533 | inactive: -0.588 | inactive: -0.722 | inactive: -0.551 | inactive: -0.725 | inactive: -0.798 | inactive: -0.4 | inactive: -0.454 | inactive: -0.666 | inactive: -0.385 |

From the supplement of paper PMC11383711
